Measured values taken from the supplement of paper PMC12217912.
The other results are listed elsewhere or left out. The full chains were built here from the parent and the listed change. Values near 0.05 are background.

B1: TEV protease; numbered along this chain (parent)
chain: MGESLFKGPRDYNPISSSICHLTNESDGHTTSLYGIGFGPFIITNKHLFRRNNGTLVVQSLHGVFKVKDTTTLQQHLVDGRDMIIIRMPKDFPPFPQKLKFREPQREERICLVTTNFQTKSMSSMVSDTSCTFPSGDGIFWKHWIQTKDGQCGSPLVSTRDGFIVGIHSASNFTNTNNYFTSVPKNFMELLTNQEAQQWVSGWRLNADSVLWGGHKVFMVKPEEPFQPVKEATQL

Variants of: B1
Assay: raw area under fraction-flipped curve 0-4 h after induction (AUC4h, not background-subtracted), DNA-recorder readout of cleavage of the substrate (dimensionless); higher = more cleavage of the substrate by the protease variant
Conditions: temperature: 34 °C; time window: 0-4 h after rhamnose induction
Experimental: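 In vivo DNA recorder in E. coli TOP10(DE3) ΔrhaA at 34 °C. Each TEVp single-site mutant (parent TEVp 0) is paired with a single-site variant of the 7-mer TEVs (canonical ENLYFQ|S). The substrate sits between flexible linkers in a Bxb1-sfGFP-TEVs-SsrA fusion, so cleavage stabilises Bxb1 and speeds flipping of a recombination array, read by NGS. The value is the raw area under the fraction-flipped curve over 0-4 h after rhamnose induction (AUC4h), with ≥20 reads per time point. It is not background-subtracted; inactive controls average about 0.047.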
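Further: Bxb1 expression induced with 0.2% (w/v) L-rhamnose at OD600 near 0.5, cultures sampled hourly, flipped fraction per protease–substrate barcode pair counted by paired-end Illumina sequencing.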

Variant	area with substrate ENLYFAS	area with substrate ENLYFCS	area with substrate ENLYFDS	area with substrate ENLYFES	area with substrate ENLYFFS	area with substrate ENLYFGS	area with substrate ENLYFHS	area with substrate ENLYFIS	area with substrate ENLYFKS	area with substrate ENLYFLS	area with substrate ENLYFMS	area with substrate ENLYFNS	area with substrate ENLYFPS	area with substrate ENLYFRS	area with substrate ENLYFSS	area with substrate ENLYFTS	area with substrate ENLYFVS	area with substrate ENLYFWS	area with substrate ENLYFYS
P155L	0.0566	0.0464	0.0521	0.0496	0.0633	0.0492	0.0492	0.0558	0.0527	0.0532	0.0167	0.0596	0.049	0.0533	0.059	0.08	0.0435	0.055	0.0497
P155A	0.0519	0.0592	–	0.0791	0.0656	–	0.0494	0.0566	0.0607	0.0558	0.0673	0.0567	0.0642	–	0.0857	–	0.0683	0.0536	0.0547
P155W	0.0609	0.0433	0.0424	0.0547	0.0605	0.0544	0.0637	0.051	0.0621	–	0.0526	0.0573	0.0521	0.0567	0.0602	0.0511	0.0545	0.0493	0.0549
P155S	0.0499	0.0673	0.0586	0.0389	0.0678	–	0.0526	0.0501	0.0542	0.0617	0.0569	0.0672	0.0525	0.046	0.0633	0.0733	0.0585	0.0628	0.0481
K148G	0.0695	0.0589	–	0.0734	0.0561	0.0642	0.0702	0.0566	–	–	0.0785	0.0548	0.0501	0.0588	0.0391	–	0.0555	0.0541	0.0995
N175C	0.0655	0.0521	0.0504	0.0657	0.0578	–	–	0.0369	0.0631	–	0.055	–	0.0582	0.0414	–	0.0565	–	0.045	0.0704
I164C	0.0654	0.0613	–	0.067	0.0601	–	0.0584	0.0586	0.0652	–	0.0583	0.0657	0.0591	0.0582	–	0.0617	0.0521	0.0564	0.0573
G150K	0.0598	–	0.0559	0.061	0.0641	–	–	0.0549	0.0619	0.0471	0.063	–	0.0508	0.0543	0.0559	0.0544	0.0683	–	0.0519
G150R	0.0611	–	–	0.0556	0.0704	0.0513	0.0651	0.0574	0.0576	0.0597	0.0621	0.0721	0.0651	0.0502	0.061	0.0595	–	0.0474	0.0565
I167W	0.0633	0.0457	–	0.0408	0.0723	0.0463	0.0609	0.0553	0.0567	0.0632	0.0596	–	0.0538	0.0621	0.0611	0.0469	0.0656	0.07	0.0609
I167T	0.0741	–	–	–	0.0721	0.0684	0.0588	0.0489	0.0516	–	0.0684	0.059	0.0784	0.0644	–	–	0.0568	–	0.0467
